Measurements reported in PubChem BioAssay AID686978 (National Center for Advancing Translational Sciences (NCATS), 2013).
Among all 420,000 compounds or so, about 64,000 (15%) were called active. This list was built around the results that the source calls inconclusive (neither active nor inactive); the mix of calls is not that of the screen. Calls come from the whole dose curve; as a rule, active = well fitted inhibition curve with a large enough effect; inconclusive = small, poorly fitted or top-dose-only effect; inactive = flat fitted curve, though single readings scatter. Potencies of inconclusive entries are left out as doubtful fits.

Experiment: qHTS for Inhibitors of human tyrosyl-DNA phosphodiesterase 1 (TDP1): qHTS in cells in absence of CPT; note: nearly all actives have a fitted effect of over 55% in size
Conditions: DT40 Tdp1-/- hTDP1 cells, no CPT, ATP luminescence, 48 h; series mostly up to 46.2 µM
Summary of the method: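 DT40 Tdp1-/-;hTDP1 cells, no CPT (DMSO vehicle only), 400 cells/well; compounds pin-transferred; ≥48 hr, 37 °C; CellTiter-Glo 30 min RT dark, luminescence read.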
Potency is the fitted concentration of half-maximal effect; tags give direction and shape of the fitted curve.

Row | SMILES | Potency
1 | O=S(=O)(NNc1ncc(C(F)(F)F)cc1Cl)c1ccccc1 | inconclusive [inhibitor, single point]
2 | CCOc1ccccc1N1CCN(CC(=O)Nc2nc(C)c(C(=O)N(C)C)s2)CC1 | inactive
3 | CCc1nnc2c3ccccc3nc(Nc3ccccc3OC)n12 | inconclusive [inhibitor, single point]
4 | CCOC(=O)C1CCN(Cc2cn(C)nc2-c2ccc(Oc3ccccc3)cc2)CC1 | inconclusive [inhibitor, partial curve]
5 | O=C(CN1CCN(C(=O)C2CCN(C(=O)/C=C/c3ccccc3)CC2)CC1)Nc1ccc(F)cc1 | inconclusive [inhibitor, single point]
6 | NC(c1ccccc1)c1csc(Nc2cc(Oc3ccccc3)ncn2)n1 (stereo not given) | active: 16.4 µM
7 | COc1ccc(CN(C)C(=O)[C@H]2O[C@@H](n3ccc(=O)[nH]c3=O)[C@H](O)[C@@H]2O)cc1OC | inactive
8 | O=C1C(Cl)=C(Nc2ccccc2O)C(=O)N1c1ccccc1 | inconclusive [inhibitor, single point]
9 | CCOc1ccc(C(=O)NNC(=O)CNC(=O)c2ccc(C)s2)cc1OC | inactive
10 | Cc1cc(C)c(NC(=O)CNC(=O)COC(=O)C2=COCCO2)c(C)c1 | inactive
11 | COc1ccccc1CN(C)C(=O)c1sccc1-c1ccccc1 | inconclusive [inhibitor, single point]
12 | CCOC(=O)C1(Cc2ccccc2C(F)(F)F)CCN(CCCn2cccn2)CC1 | inconclusive [inhibitor, single point]
13 | CCc1ccc(C(=O)CSc2n[nH]c(C)n2)cc1 | inactive
14 | CCOC(=O)c1c(-n2cnnn2)sc2c1CCCC2 | inactive
15 | COc1cc(OC)cc(C(=O)OCC(=O)NCc2ccco2)c1 | inactive
16 | O=C(NCCCN1CCOCC1)c1onc(CSc2ccccn2)c1C(=O)NCCCN1CCOCC1 | inactive
17 | Cc1nn(C)c(C)c1S(=O)(=O)N(CC(=O)NCc1cccs1)c1ccc(C(C)C)cc1 | inactive
18 | Cc1csc(Sc2nc3c(c(=O)[nH]c(=O)n3C)n2Cc2ccccc2Cl)n1 | inconclusive [inhibitor, single point]
19 | Cc1ccc(S(=O)(=O)N2CCN(C(=O)CN3C(=O)NC4(CCCC4)C3=O)CC2)c(C)c1 | inactive
20 | CCOc1cccc(CNCCO)c1OCc1ccc(Cl)cc1 | inconclusive [inhibitor, partial curve, poor fit]
21 | Cc1oc(-c2ccc(C(=O)Nc3cccc(C(F)(F)F)c3)cc2)nc1CSc1ccccc1 | active: 16.4 µM
22 | S=C(/N=c1/sccn1Cc1ccccc1)NC1CC1 | inconclusive [inhibitor, single point]
23 | COc1ccc(N(CC(=O)O)S(=O)(=O)c2c(C)n[nH]c2C)cc1 | inactive
24 | CCOC(=O)c1c(-c2ccc(OC)c(OC)c2)csc1NC(=O)C1CCCO1 (stereo not given) | inconclusive [inhibitor, single point]

Row | SMILES | Potency
25 | COc1ccc(/C=C/C(=O)OCC(=O)N2CCCC2)c(OC)c1 | inconclusive [inhibitor, single point]
26 | O=C(CSc1nnc(-c2ccccc2O)o1)N1CCCCC1 | inactive
27 | N#Cc1ccccc1S(=O)(=O)N1CCN(C(=O)c2ccc(-n3cncn3)c([N+](=O)[O-])c2)CC1 | inconclusive [inhibitor, single point]
28 | COc1ccc(C(C(=O)NC2CCCCC2)N(C(=O)CCl)c2ccccc2Cl)cc1 (stereo not given) | active: 14.6 µM
29 | Cc1cccc(-c2oc3ccccc3c2C#CCCCCO)c1 | inconclusive [inhibitor, single point]
30 | O=C(c1cnc2n(c1=O)CCS2)N1CCN(c2ccc(Cl)c(Cl)c2)CC1 | inconclusive [inhibitor, single point]
31 | COc1ccc(Nc2nc3ccc(Cl)cc3n3nnnc23)cc1OC | active: 16.4 µM
32 | O=C(CSc1nc(=O)n(CCCN2CCOCC2)c2c1CCCC2)Nc1cccc([N+](=O)[O-])c1 | inconclusive [inhibitor, single point]
33 | S=c1nc(Cc2ccccc2)[nH]c2ccccc12 | inconclusive [inhibitor, single point]
34 | CCOC(=O)N1CCN(C(=O)CCN2C(=O)/C(=C\c3cccc(OC)c3)SC2=S)CC1 | active: 14.6 µM
35 | O=C(O)Cc1c(-c2ccccc2Cl)c2cc(Br)ccc2[nH]c1=O | inactive
36 | CCCCc1nc2n[nH]c(N)c2c2c1CSC(C)(C)C2 | inconclusive [inhibitor, partial curve, poor fit]
37 | CCOC(=O)c1ccc(NC(=O)C2(c3ccccc3)CCCC2)cc1 | inconclusive [inhibitor, partial curve, poor fit]
38 | COc1ccc(-c2csc(NC(=O)CN3C(=O)NC4(CCCC4)C3=O)n2)c(OC)c1 | inconclusive [inhibitor, single point]
39 | COc1cc(C2Nc3c(F)cccc3C3C=CCC32)cc(Br)c1OC (stereo not given) | inconclusive [inhibitor, single point]
40 | Cc1cc(N2CCC(C)CC2)nc2ccc(N3C(=O)CCC3=O)cc12 | inconclusive [inhibitor, partial curve, poor fit]
41 | COC/C=C/C1=CC2=CC(=O)C(C)(OC(=O)c3cnc4ccccc4n3)C(=O)C2=CN1Cc1ccc(OC)cc1 (stereo not given) | inconclusive [inhibitor, single point]
42 | CC(C)C(=O)Nc1ccc(NC(=S)NC(=O)c2ccccc2F)cc1 | inactive
43 | CCOc1ccc(Oc2ccc(S(=O)(=O)N3CCOCC3)cc2N)cc1 | inconclusive [inhibitor, single point]
44 | COc1ccc(-c2nc3scc(CCNS(=O)(=O)c4ccc(F)c(C(F)(F)F)c4)n3n2)cc1OC | active: 13 µM
45 | CN(CC(=O)Nc1cccc(F)c1)C(=O)COc1ccc2c(c1)CCC2 | inconclusive [inhibitor, single point]
46 | O=C(c1ccccc1-n1cccn1)N1CCOc2ccc(CN3CCOCC3)cc2C1 | inactive
47 | CCOc1ccc(CCN2C(=O)C(=O)N([C@@H](CC(C)C)CN3CCC[C@H]3CN3C(=O)C(=O)NC[C@@H]3Cc3ccc(O)cc3)C[C@@H]2CC(C)C)cc1 | inconclusive [inhibitor, single point]
48 | CCC(C)NC(=O)CSc1nc2cc(S(=O)(=O)N3CCOCC3)ccc2n1CC (stereo not given) | inactive

Row | SMILES | Potency
49 | O=c1c2ccccc2[nH]c(=S)n1CCCN1CCN(C2CCCCC2)CC1 | inactive
50 | CCOC1CCCC(n2cnc3c(=S)nc[nH]c32)O1 (stereo not given) | inconclusive [inhibitor, partial curve, poor fit]
51 | O=C(CNC(=O)c1ccccc1Cl)Nc1ccncc1 | inactive
52 | COc1cc(C(=O)C(=O)N2CCN(c3ccccc3)CC2)cc(OC)c1OC | active: 3.66 µM
53 | CC(C)CN(C(=O)COc1ccc(C(C)(C)C)cc1)C1CCS(=O)(=O)C1 (stereo not given) | active: 23.1 µM
54 | COc1ccc(C(=O)Nc2ccc(C)cn2)c(OC)c1 | inconclusive [inhibitor, single point]
55 | CCN(CC)C(=O)CCCOc1ccc(Cl)cc1Cl | inconclusive [inhibitor, partial curve]
56 | Cc1cccc(C)c1OCc1n[nH]c(=S)n1-c1ccccc1 | inconclusive [inhibitor, single point]
57 | CCCCN(C)C1=CC2=CC(=C(C#N)C#N)CCC2CC1 (stereo not given) | inconclusive [inhibitor, single point]
58 | Cc1ccc(NC(=O)c2cnc(N3CCCCC3)c3ccccc23)cc1Cl | inconclusive [inhibitor, single point]
59 | CCc1cccc(CC)c1NC(=S)NCCc1ccc(O)c(O)c1 | inconclusive [inhibitor, single point]
60 | C/C(N)=C(/C#N)C(=O)CSc1nc(-c2ccccc2)c(-c2ccccc2)o1 | inconclusive [inhibitor, partial curve, poor fit]
61 | Cc1cc(C)cc(S(=O)(=O)c2cn(C)c3cc(N4CCN(C)CC4)c(F)cc3c2=O)c1 | inconclusive [inhibitor, single point]
62 | O=[N+]([O-])c1cc2ncccc2c2ncccc12 | active: 4.61 µM
63 | CCCCNC(=O)c1[nH]c(C2CCNCC2)nc1-c1cccc(C(F)(F)F)c1 | inconclusive [inhibitor, single point]
64 | O=c1oc2c(-c3ccc([N+](=O)[O-])cc3)cc(O)cc2s1 | inconclusive [inhibitor, partial curve]
65 | Cn1c(=O)[nH]c(=O)c2c1nc(Br)n2CC(O)COc1ccccc1 (stereo not given) | inactive
66 | COC(=O)C1=C(C(=O)OC)SC(=C2C(=S)C(C)(C)N(C(=O)CC(C)C)c3ccccc32)S1 | inconclusive [inhibitor, single point]
67 | COCCCNC(=O)C[C@@H]1C[C@@]2(C(=O)OC)CC(C)(C)CC=C2N(Cc2ccc3c(c2)OCO3)C1=O | inconclusive [inhibitor, single point]
68 | COC(=O)c1scc(-c2ccc(C)cc2)c1S(=O)(=O)Nc1cccc(Cl)c1C | inconclusive [inhibitor, partial curve, poor fit]
69 | CC(=O)OCC(=O)C1(O)CCC2C3CCC4=CC(=O)CCC4(C)C3(F)C(O)CC21C (stereo not given) | inactive
70 | COc1cc2c(cc1NC(=S)NC(=O)c1c(OC)cccc1OC)oc1ccccc12 | inconclusive [inhibitor, partial curve, poor fit]
